# According to PubChem BioAssay AID504332 (National Center for Advancing Translational Sciences (NCATS), 2011):
# Out of some 350,000 compounds screened, about 31,000 (8.9%) were called active. The inconclusive results got no clear call from the source; some entries with a clear call stand among them for comparison. Calls come from the whole dose curve; as a rule, active = well fitted inhibition curve with a large enough effect; inconclusive = small, poorly fitted or top-dose-only effect; inactive = no such curve, though single readings can be large or run the other way. Potencies beside an inconclusive call are fits to weak or partial responses and may not hold up.
# Target: Histone-lysine N-methyltransferase EHMT2 (Homo sapiens) (UniProt Q96KQ7)
# Chain of UniProt Q96KQ7 (Q96KQ7 whole entry, looked up): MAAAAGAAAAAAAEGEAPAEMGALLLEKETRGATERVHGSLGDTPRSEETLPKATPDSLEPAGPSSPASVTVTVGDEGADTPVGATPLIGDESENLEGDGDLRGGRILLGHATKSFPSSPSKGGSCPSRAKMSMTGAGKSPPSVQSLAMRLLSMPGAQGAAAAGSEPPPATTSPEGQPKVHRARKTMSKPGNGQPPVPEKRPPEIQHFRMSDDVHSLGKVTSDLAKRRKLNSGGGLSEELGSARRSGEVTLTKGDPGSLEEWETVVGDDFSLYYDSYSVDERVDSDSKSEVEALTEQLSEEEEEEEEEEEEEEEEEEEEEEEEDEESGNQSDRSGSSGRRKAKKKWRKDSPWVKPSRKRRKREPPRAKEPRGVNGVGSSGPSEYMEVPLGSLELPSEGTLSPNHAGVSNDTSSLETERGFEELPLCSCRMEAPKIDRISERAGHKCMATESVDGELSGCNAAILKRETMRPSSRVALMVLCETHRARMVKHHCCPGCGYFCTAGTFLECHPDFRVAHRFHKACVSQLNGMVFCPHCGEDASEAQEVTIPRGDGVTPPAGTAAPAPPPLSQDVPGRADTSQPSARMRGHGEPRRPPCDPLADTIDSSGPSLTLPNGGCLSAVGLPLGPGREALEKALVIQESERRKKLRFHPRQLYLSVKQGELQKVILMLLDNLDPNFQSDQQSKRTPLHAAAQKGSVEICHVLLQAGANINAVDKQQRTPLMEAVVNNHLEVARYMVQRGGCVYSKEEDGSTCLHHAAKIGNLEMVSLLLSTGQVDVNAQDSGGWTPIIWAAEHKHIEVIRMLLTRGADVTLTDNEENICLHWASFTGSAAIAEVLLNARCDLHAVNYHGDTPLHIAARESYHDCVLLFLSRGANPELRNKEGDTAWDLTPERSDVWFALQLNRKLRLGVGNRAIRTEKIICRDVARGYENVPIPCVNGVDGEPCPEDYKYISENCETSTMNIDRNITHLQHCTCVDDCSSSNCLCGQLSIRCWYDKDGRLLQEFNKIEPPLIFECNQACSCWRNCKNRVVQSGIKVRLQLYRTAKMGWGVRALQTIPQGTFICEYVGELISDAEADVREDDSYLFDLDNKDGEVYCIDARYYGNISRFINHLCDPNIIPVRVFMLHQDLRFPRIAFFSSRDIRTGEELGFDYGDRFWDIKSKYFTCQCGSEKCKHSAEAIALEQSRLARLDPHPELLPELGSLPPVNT
# Test: qHTS Assay for Inhibitors of Histone Lysine Methyltransferase G9a; note: nearly all actives have a fitted effect of over 75% in size
# Conditions: G9a H3K9 monomethylation, AlphaScreen, 2 h; activity, negative = inhibition: at 59 µM (top of the series) unless noted
# Procedure, shortened: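 Step 1: enzyme (final 20 nM) with compound, 15 min RT. Step 2: substrate peptide 500 nM and SAM 20 uM, 2 h RT. Step 3: anti-H3K9me1 antibody and AlphaScreen beads, 10 min, then plate read.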
# % is set by controls: 0 for no effect and ±100 for the full control effect; potency is the fitted concentration of half-maximal effect; tags give direction and shape of the fitted curve.
Structure (SMILES),Potency,"activity, negative = inhibition"
COc1ccc(NC(=O)CN2C(=O)C(c3ccccc3)=NC23CCCCCC3)cc1OC,"inconclusive: 89.1 µM [inhibitor, single point]",–
COc1ccc(CCNc2nc(=S)[nH]c3cc(OC)c(OC)cc23)cc1OC,"inconclusive: 11.2 µM [inhibitor, full curve, poor fit]",–
COC(=O)c1c(NC(=O)c2ccccc2[N+](=O)[O-])sc2c1CC(C)(C)NC2(C)C,–,inactive: 2.64%
CCn1nnc(NC(=O)c2ccc([N+](=O)[O-])o2)n1,"inconclusive: 79.4 µM [inhibitor, partial curve, poor fit]",–
COc1ccc(CCC(=O)NCc2ccc3c(c2)CCN3C(=O)c2ccc(C)cc2)cc1,–,inactive: -0.811%
COc1ccc(C(C)=O)cc1COc1ccc([N+](=O)[O-])c(C)c1,"inconclusive: 79.4 µM [inhibitor, partial curve, poor fit]",–
O=C(Nc1ccccc1)Nc1cc(S(=O)(=O)N2CCOCC2)ccc1N1CCCC1,"inconclusive: 7.08 µM [inhibitor, full curve, poor fit]",–
COc1ccc(N2CC(C(=O)N3CCN(C)CC3)CC2=O)cc1 (stereo not drawn),"inconclusive: 89.1 µM [inhibitor, single point]",–
CCCOc1ccc(/C(O)=C2/C(=O)C(=O)N(c3ccccn3)C2c2ccc(OC)cc2)cc1C (stereo not drawn),"inconclusive: 44.7 µM [inhibitor, partial curve, poor fit]",–
COCCNC(=O)CSc1nc(-c2ccc(C)cc2)nc2c1c(=O)n(C)c(=O)n2C,–,inactive: 11.8%
O=C(Cn1ccc2ccccc2c1=O)NCCC(=O)Nc1cccnc1,–,inactive: -3% [at 2.33 µM]
COc1ccc(N2Cc3cccc(C(=O)NC(C)CCc4ccco4)c3C2=O)cc1 (stereo not drawn),"inconclusive: 89.1 µM [inhibitor, single point]",–
CC(C)(C)c1ccc(C(=O)Nc2ncn[nH]2)cc1,–,inconclusive: -58.5% [inhibitor] [at 12.7 µM]
CC1CCN(C(=O)Cn2c3ccc(F)cc3c3nc4n(c(=O)c32)CCCS4)CC1,"inconclusive: 17.8 µM [inhibitor, partial curve, poor fit]",–
CCOc1ccccc1CNC(=O)CN1C(=O)CCc2cc(S(=O)(=O)N3CCCCC3)ccc21,–,inactive: 32.5%
CCN(CC)S(=O)(=O)c1ccc(NCCc2ccccn2)nc1,–,inactive: 20.4% [at 102 µM]
c1ccc2c(c1)ncn2Cc1nnc2sc(-c3ccncc3)nn12,–,inconclusive: -114% [inhibitor] [at 12.7 µM]
CC(C)CN1CCNC(=O)C1CC(=O)NCCCN1CCCc2ccccc21 (stereo not drawn),–,inactive: -10.7% [at 12.7 µM]
Cc1cc(C)n2nc(S(=O)(=O)N(C)Cc3ccccc3)nc2n1,–,inactive: -26.2% [at 12.7 µM]
CCOC(=O)c1c(-c2ccccc2)oc2ccc(NS(=O)(=O)c3ccc(C(C)C)cc3)cc12,–,inactive: 5.86%
CSc1ccccc1C(=O)C1CCCN(C(=O)CCc2cccnc2)C1 (stereo not drawn),–,inactive: -2.76% [at 102 µM]
N#Cc1nc(COc2ccc(Br)cc2)oc1NCCCn1ccnc1,active: 39.8 µM,–
CCCCn1c(SCc2cc(=O)n3ccsc3n2)nc2cc(C(=O)OC)ccc2c1=O,"inconclusive: 0.282 µM [inhibitor, partial curve, poor fit]",–

Structure (SMILES),Potency,"activity, negative = inhibition"
CCOc1ccc(S(=O)(=O)N2CCCCC2)cc1NC(=O)Cc1cccs1,active: 15.8 µM,–
COc1ccc(NS(=O)(=O)c2ccc(NC(=S)NC(=O)c3cccc(F)c3)cc2)nn1,"inconclusive: 39.8 µM [inhibitor, single point]",–
COC(=O)c1[nH]c2ccc(C)cc2c1NC(=O)Nc1ccccc1OC,active: 39.8 µM,–
O=C(CSc1nnc(-c2ccccc2O)o1)N1CCOCC1,–,inactive: -10.6% [at 102 µM]
NC(=O)c1ccc(SCC(=O)OCC(=O)N2CCN(C(=O)c3ccco3)CC2)c([N+](=O)[O-])c1,active: 56.2 µM,–
Cc1ccccc1CSCC(=O)c1c(N)n(CC(C)C)c(=O)n(C)c1=O,"inconclusive: 89.1 µM [inhibitor, partial curve, poor fit]",–
C=CCOc1ccc(C2c3c(oc4ccc(C)cc4c3=O)C(=O)N2CCCN2CCOCC2)cc1 (stereo not drawn),"inconclusive: 39.8 µM [inhibitor, single point]",–
CCOCCCNC(=S)N1CCN(Cc2ccco2)CC1,active: 10 µM,–
O=C(CCC(=O)c1ccc(Br)cc1)Nc1ccc(F)cc1,"inconclusive: 89.1 µM [inhibitor, single point]",–
Cc1nn(Cc2cccc(F)c2)c(C)c1NC(=O)c1c(Cl)cnn1C,–,inactive: 11.5%
O=c1c2ccccc2nc(-c2ccco2)n1-c1nc2ccccc2s1,"inconclusive: 44.7 µM [inhibitor, partial curve, poor fit]",–
CCOc1ccccc1NC(=O)CSc1nc(=O)n(CCCN2CCOCC2)c2c1CCCC2,–,inactive: -2.72% [at 102 µM]
Nc1nnc(SCCOc2cccc(Br)c2)s1,"inconclusive: 3.55 µM [inhibitor, partial curve, poor fit]",–
O=C(CNC(=O)c1ccncc1)N/N=C/c1ccccc1[N+](=O)[O-],"inconclusive: 89.1 µM [inhibitor, partial curve, poor fit]",–
CC(NC(=O)/C(C#N)=C1\N=C(NC(=O)c2ccco2)c2ccccc21)c1ccccc1 (stereo not drawn),"inconclusive: 50.1 µM [inhibitor, partial curve, poor fit]",–
Cc1ccc(Cn2ccn(Cc3cccc(C(F)(F)F)c3)c(=O)c2=O)cc1,"inconclusive: 31.6 µM [inhibitor, partial curve, poor fit]",–
COCCN(C(=O)CCC(=O)Nc1cc(C)on1)C(C(=O)NC1CCCC1)c1ccc(C(C)C)cc1 (stereo not drawn),"inconclusive: 7.08 µM [inhibitor, partial curve, poor fit]",–
Cc1ccc(S(=O)(=O)N2CCCC2CNC(=O)C(=O)NC2CC2)cc1 (stereo not drawn),–,inactive: -3.84% [at 0.501 µM]
O=C(COC(=O)COc1ccccc1)Nc1ncc([N+](=O)[O-])s1,"inconclusive: 8.91 µM [inhibitor, single point]",–
COc1ccccc1Nc1nnc(SCc2cc(=O)n3cc(C)ccc3n2)s1,active: 12.6 µM,–
CC(=O)Nc1ccc(S(=O)(=O)N(C)CC(=O)OCC(=O)NNC(=O)c2ccccc2F)cc1,"inconclusive: 50.1 µM [inhibitor, partial curve, poor fit]",–
CCc1nn(CC(=O)Nc2ccc(C)cc2C)c(=O)c2cc3sccc3n12,–,inactive: 5.05%
CCc1cccc(CC)c1N(COC)C(=O)Cn1c(C)nc2ccccc21,"inconclusive: 1.58 µM [inhibitor, full curve, poor fit]",–

Structure (SMILES),Potency,"activity, negative = inhibition"
Clc1ccc2c(NCc3ccco3)ncnc2c1,"inconclusive: 25.1 µM [inhibitor, single point]",–
Cc1ccc(/C=C/C(=O)OCC(=O)NCCN2C(=O)CSC2=O)o1,active: 50.1 µM,–
COc1cccc(-c2cc(C(=O)Nc3ccc([N+](=O)[O-])cn3)c3ccccc3n2)c1,active: 7.94 µM,–
O=C(CCc1nnc2ccc(NCc3ccco3)nn12)Nc1ccccn1,"inconclusive: 14.1 µM [inhibitor, partial curve, poor fit]",–
COc1cc(OC)c(NC(=O)c2cnn(-c3cccc(Cl)c3C)c2C2CCN(C(=O)OC(C)(C)C)CC2)cc1Cl,–,inactive: -4.93%
NS(=O)(=O)c1ccc(NC(=O)CSc2nc3ccccc3[nH]2)cc1,–,inactive: -50.9% [at 102 µM]
CCOc1ccc(C2=Nc3ccc(Br)cc3C(c3ccc(N4CCOCC4)cc3)=NN2)cc1,active: 44.7 µM,–
O=C(Nc1nc(-c2ccccc2)cs1)C1CCCN(S(=O)(=O)c2cccc([N+](=O)[O-])c2)C1 (stereo not drawn),"inconclusive: 6.31 µM [inhibitor, partial curve, poor fit]",–
C[C@@]12CCC3[C@@](CCC4[C@@]3(C)CCC[C@@]4(C)C(=O)NC3CCCCC3)(CC1=O)C2 (stereo partly drawn),–,inactive: 10.3% [at 0.501 µM]
N=C(N)SCc1nc2ccccn2c1Br,–,inactive: -5.05%
CCn1c(SCC(=O)N/N=C/c2cc(OC)c(O)c(OC)c2)nc2ccccc21,"inconclusive: 20 µM [inhibitor, single point]",–
CCOC(=O)Cn1c(=NC(=O)CSC(C)=O)sc2ccccc21,"inconclusive: 35.5 µM [inhibitor, partial curve, poor fit]",–
O=C(Nc1ccc(S(=O)(=O)N2CCOCC2)cc1)c1ccc(=O)[nH]c1,–,inactive: -17.2% [at 102 µM]
Cc1c(C(=O)OC(C)C)sc(N)c1C(=O)OC(C)C,"inconclusive: 39.8 µM [inhibitor, single point]",–
COC(=O)Oc1ccc(/C=N/NC(=O)CN(c2ccccc2Br)S(C)(=O)=O)cc1OC,–,inactive: 10.5% [at 0.501 µM]
COCCNC(=S)NNc1ccccc1[N+](=O)[O-],"inconclusive: 11.2 µM [inhibitor, partial curve, poor fit]",–
CCC(C)NC(=O)C1CCN(S(=O)(=O)c2ccc(OC)cc2)CC1 (stereo not drawn),–,inactive: -3.36%
CCOC(=O)c1c(NC(=O)COc2cccc(C)c2C)sc2c1CCCCC2,active: 11.2 µM,–
COc1ccc(-n2c(Cc3cc(=O)[nH]c(=O)[nH]3)nnc2SCC(=O)N2CCC(C)CC2)cc1,"inconclusive: 89.1 µM [inhibitor, single point]",–
COc1ncc2nc(-c3ccc(Cl)cc3)c(=O)n(Cc3cccs3)c2n1,–,inactive: -10.8% [at 0.501 µM]
O=C1c2ccccc2-c2onc3c(N4CCN(CCO)CC4)cc(N4CCN(C(=O)c5ccco5)CC4)c1c23,active: 28.2 µM,–
COc1cccc(OC)c1-c1nn2c(-c3ccccc3Cl)nnc2s1,"inconclusive: 22.4 µM [inhibitor, single point]",–
